From the antibiotic and cytotoxicity screens of Wong et al. (2023) come the findings set out here.

The other results are listed elsewhere or left out.

The first assay deals with HSkMC (human skeletal muscle cells). The assay can be described thus: cytotoxicity call (relative viability < 0.9). The note with it: 10 µM.
As for `C/C=C/c1ccc2c(c1)O[C@H](CN(C)S(=O)(=O)c1ccccc1OC)[C@H](C)CN([C@H](C)CO)S2(=O)=O`, the cytotoxicity call was “inactive”. Same read-out and setting: for `O=C1NCCc2cncn21` the value was “inactive”; for `C[C@@H]1CCCCO[C@H](CN(C)Cc2ccc3c(c2)OCO3)[C@H](C)CN([C@@H](C)CO)C(=O)c2cc(NC(=O)Nc3ccc(C(F)(F)F)cc3)ccc2O1`, “active”; for `NC(=O)CCN1C(=O)c2ccccc2C1=O`, “inactive”. Consider `C[C@H]1CN([C@@H](C)CO)C(=O)Cc2cc(NS(=O)(=O)c3ccccc3)ccc2O[C@H]1CN(C)Cc1ccncc1`, for which the cytotoxicity call was “inactive”. On the same count and under the same terms, to `CC(C)NC(=O)N[C@@H]1CC[C@@H](CCN)O[C@H]1CO` belongs “inactive”; to `C[C@H]1CN([C@@H](C)CO)S(=O)(=O)c2ccc(Br)cc2O[C@@H]1CN(C)C(=O)C1CCOCC1`, “inactive”; to `C[C@@H]1CCCCO[C@H](CN(C)C(=O)Nc2ccc(C(F)(F)F)cc2)[C@H](C)CN([C@@H](C)CO)C(=O)c2cc(NC(=O)Nc3ccc(C(F)(F)F)cc3)ccc2O1`, “inactive”. Take `CC(C)CC#Cc1ccc2c(c1)O[C@H](CN(C)S(=O)(=O)c1cccc(F)c1)[C@H](C)CN([C@H](C)CO)S2(=O)=O`: the cytotoxicity call was “inactive”. Consider `C[C@H](NC(=O)[C@@H]1N[C@@H]2c3ccc(-c4ccc(C(=O)N(C)C)cc4)c(=O)n3C[C@@H]2[C@H]1CO)c1ccccc1`, for which the cytotoxicity call was “inactive”. `C[C@H](CO)N1C[C@H](C)[C@@H](CN(C)S(=O)(=O)c2cn(C)cn2)Oc2c(NS(=O)(=O)c3cn(C)cn3)cccc2C1=O`: the cytotoxicity call was “inactive”. Still for that read-out and setting: for `Nc1nnc(CC(=O)O)[nH]1` the value was “inactive”.

The subject of another assay is HepG2. Briefly: cytotoxicity call (relative viability < 0.9). To be noted: 10 µM.
On to `O=C(C[C@@H]1CC[C@H]2[C@@H](COC[C@H](O)CN2S(=O)(=O)c2ccc(Cl)cc2)O1)N[C@H]1CCN(Cc2ccccc2)C1`, for which the cytotoxicity call is “inactive”. Still for that read-out and setting: to `C[C@H](CO)N1C[C@H](C)[C@H](CN(C)Cc2ccncc2)Oc2ccc(NC(=O)c3ccncc3)cc2CC1=O` belongs “inactive”. On the same count and under the same terms, for `CN1CCN(C(=O)C[C@H]2CC[C@H]3[C@@H](COc4ccc(NC(=O)C5CCCCC5)cc4C(=O)N3C)O2)CC1` the value was “inactive”. On the same count and under the same terms, for `C[C@@H]1CN([C@@H](C)CO)C(=O)c2cc(NS(=O)(=O)c3cn(C)cn3)ccc2O[C@@H]1CN(C)S(=O)(=O)c1ccccc1` the value was “inactive”; for `C[C@@H]1CN([C@H](C)CO)C(=O)c2cc(NC(=O)C3CCCCC3)ccc2O[C@@H](C)CCCCO[C@@H]1CN(C)S(=O)(=O)c1ccc(Cl)cc1`, “inactive”.

`CO[C@H]1CN(C)C(=O)c2ccc(NS(C)(=O)=O)cc2OC[C@@H](C)N(C(=O)C2CCOCC2)C[C@H]1C`: the cytotoxicity call is “inactive”. Turning to `O=C(C[C@@H]1C[C@@H]2c3cc(NC(=O)c4ccc5c(c4)OCO5)ccc3O[C@@H]2[C@@H](CO)O1)NCc1ccccn1`, the cytotoxicity call was “inactive”. Same read-out and setting: for `CCNC(=O)[C@@H]1CCCN1C(=O)[C@H](CCCNC(=N)N)NC(=O)[C@H](CC(C)C)NC(=O)[C@@H](COC(C)(C)C)NC(=O)[C@H](Cc1ccc(O)cc1)NC(=O)[C@H](CO)NC(=O)[C@H](Cc1c[nH]c2ccccc12)NC(=O)[C@H](Cc1cnc[nH]1)NC(=O)[C@H]1CCC(=O)N1` the value was “inactive”. On to `CN1C(C(=O)Nc2ccccn2)=C(O)c2ccccc2S1(=O)=O`, for which the cytotoxicity call is “inactive”. Regarding `Cc1ccc(S(=O)(=O)N(C)C[C@H]2Oc3ccc(NC(=O)Nc4cccc5ccccc45)cc3CC(=O)N([C@@H](C)CO)C[C@H]2C)cc1`, the cytotoxicity call is “inactive”. On the same count and under the same terms, for `O=C(C[C@H]1C[C@H]2c3cc(NC(=O)C4CCOCC4)ccc3O[C@H]2[C@H](CO)O1)NCc1cc(F)ccc1F` the value was “inactive”; for `COc1ccc(S(=O)(=O)Nc2cccc3c2O[C@@H](CN(C)C(=O)Nc2c(C)noc2C)[C@H](C)CN([C@H](C)CO)C3=O)cc1`, “inactive”; for `C[C@H](CO)N1C[C@H](C)[C@@H](CN(C)C(=O)Nc2ccc3c(c2)OCO3)OCCCC[C@H](C)Oc2ccc(NS(=O)(=O)c3ccc(F)cc3)cc2C1=O`, “inactive”. The same measure, in the same setting: for `CO[C@H](CN(C)S(=O)(=O)c1ccc(C)cc1)[C@@H](C)CN([C@H](C)CO)S(=O)(=O)c1cccc(Cl)c1` the value was “inactive”. On to `CCc1nc2ccc(C(=O)Nc3cc(-c4ccccc4)ccc3OC)cn2c1N(C)Cc1ccc(OC)cc1`, for which the cytotoxicity call was “inactive”. Still for that read-out and setting: to `C[C@@H]1CN([C@@H](C)CO)C(=O)Cc2cc(NC(=O)NC3CCCCC3)ccc2O[C@@H]1CN(C)C(=O)Nc1ccc(C(F)(F)F)cc1` belongs “inactive”; to `C[C@H]1CN([C@@H](C)CO)C(=O)c2cccc(NC(=O)Nc3ccc(C(F)(F)F)cc3)c2O[C@@H]1CN(C)Cc1ccc2c(c1)OCO2`, “inactive”.
